Experimental data as given in the RNAGym collection of RNA variant scans (doi:10.7554/elife.90254).
The source gives no read counts; variants with many changes may rest on few reads.

B1: LINE1-mini (parent)
chain: GGCAGAGCUCAACACAGCGUGGCAAAGUGGCUGUGGCUAGACUGCC

Variants of: B1
Test: self-cleavage, relative activity (ratio to wild type); higher = more cleavage; in vitro, sequencing; the parent is a self-cleaving ribozyme

Row | Variant | self-cleavage
1 | A14G U20C G30U C42G | 0.03
2 | A14U G19U G27C U28A U43A | 0.03
3 | A14U C15A G40A C42G | 0.16
4 | A14G G22A G44A | 0.12
5 | A14U C23A G27U G35U G36U A41C | 0.02
6 | A14U G27A G35C G44A | 0.02
7 | A14U G36C C46U | 0
8 | A14U C18U A26U U32A G36A | 0
9 | A14U G17C G35U | 0.01
10 | A14G G36U C42U | 0
11 | A14U C23G G27A U38C A39U | 0.07
12 | A14G U32C G33U | 0.01
13 | A14U G21A A26C | 0.4
14 | A14U C15U C18U G27A G29A G40C | 0.33
15 | A14G G33A C37A | 0.04
16 | A14G G21U A24C | 0.38
17 | A14U C18G U20A U38A G44A | 0.16
18 | A14U G21A C23A C45G | 0.02
19 | A14G C31A G33C C37G | 0.02
20 | A14G G29U C31A | 0.03
21 | A14U G19C G33U G44U | 0.02
22 | A14G A16C C23A U28C C42G C45U | 0.05
23 | A14G G19C C37U | 0.02
24 | A14U G30C G35U C37U | 0.03

Row | Variant | self-cleavage
25 | A14U G22C U28G | 0.04
26 | A14U C18A G21U A41G | 0.03
27 | A14G A25U C37G | 0.04
28 | A14C G33U G36U C37G | 0.15
29 | A14G U20A G36U | 0.01
30 | A14U C18A G27A U43A | 0.05
31 | A14U G36U U43A | 0.07
32 | A14G G30U C31A C45U | 0.01
33 | A14C U34A G36U | 0.03
34 | A14U A41C C46U | 0.04
35 | A14G G17A A24G | 0.06
36 | A14G G19C G27C | 0.26
37 | A14U C15U A25U | 0.17
38 | A14G G33C G35A | 0.03
39 | A14G A16C G30A C37A | 0.02
40 | A14G A16C G17C G27A G33U A39U C42U | 0.11
41 | A14U U32G G33C C46A | 0.08
42 | A14G C23A G40C | 0.03
43 | A14G C37G U43C | 0.01
44 | A14G C15U G19A G27U C46A | 0.06
45 | A14U G19C A26C | 0.4
46 | A14U G21U C23U G29C | 0.24
47 | A14G G17U U32A U43A | 0.04
48 | A14U A26U G40U | 0.09

Row | Variant | self-cleavage
49 | A14G U20C C42G | 0.03
50 | A14U U28A U43C C45A | 0.05
51 | A14C G35C G44U | 0.02
52 | A14C G33C G36U | 0.03
53 | A14G G19U G40C U43A | 0.05
54 | A14U A25U C31U U43A | 0.02
55 | A14C U34C A39C | 0.13
56 | A14G C31U G33A G36C | 0.06
57 | A14U C18A A41U | 0.21
58 | A14U G36C A39U G44U | 0.02
59 | A14U C37G A39C G44A | 0.04
60 | A14G C31G U43A C45G | 0.01
61 | A14U C15G A24U | 0.02
62 | A14U C23U C37A U38G U43C G44U | 0.03
63 | A14U C15G A24C G29C G40A | 0.01
64 | A14G A26U U28A | 0.23
65 | A14G G30U G35A | 0.08
66 | A14U C18U G44A | 0.08
67 | A14G C18G A26C G29U U32G | 0
68 | A14G U20A U28G C42G | 0.03
69 | A14G A24U G40U | 0.15
70 | A14G U38C A39G | 0
71 | A14U G17C A24G G27C | 0.19
72 | A14U C37G C42A | 0.03

Row | Variant | self-cleavage
73 | A14U G19U C46A | 0.11
74 | A14G C15G U34A C45A | 0.01
75 | A14U G21A G22U A41G C46G | 0.04
76 | A14U C23G G36A C42A | 0.08
77 | A14G G22A C45A | 0.26
78 | A14G G27U G29C C42G | 0.03
79 | A14U G21U G30C | 0.05
80 | A14U U38A A39U | 0.54
81 | A14U A26G G29C G30C G33U | 0.02
82 | A14G C15A G19C U38C | 0.14
83 | A14U G29C C37G | 0.04
84 | A14U G35C C46A | 0.07
85 | A14U G22A C31U | 0.05
86 | A14G G27A G36A | 0.05
87 | A14C U20C A24G G35U | 0.08
88 | A14U C15A C23U | 0.03
89 | A14U C23G A24G G35A | 0.01
90 | A14G C23G C46A | 0.18
91 | A14U G17A A24U A26C | 0.45
92 | A14U G35U A39C | 0
93 | A14U G21A C37A | 0.04
94 | A14G G30C G36A G44A | 0.01
95 | A14C U32C C45A C46A | 0.06
96 | A14C U32A U38C | 0.05

Row | Variant | self-cleavage
97 | A14C U28A G44U | 0.07
98 | A14G G36A G40A C42G | 0.14
99 | A14U A24U G33C C45U | 0.01
100 | A14U G27A U32A | 0.07
101 | A14G U34G G40U C45U | 0
102 | A14U G22U A24G | 0.58
103 | A14U C31A C37A C46U | 0.01
104 | A14U C18A U28G | 0.01
105 | A14U C15A G33U A39U G40U | 0.01
106 | A14U U32G G35C U38A | 0.05
107 | A14C U28A C46G | 0.11
108 | A14G C18U G27U | 0.8
109 | A14G U43G C46U | 0.45
110 | A14U U20G U32G | 0.01
111 | A14G G17C C37G | 0.03
112 | A14G C18A A25G | 0.09
113 | A14G U20A G27U | 0.82
114 | A14U A26U C37A | 0.13
115 | A14G G27C G30A | 0.47
116 | A14U G22U U28A | 0.35
117 | A14U C31U G35U | 0.07
118 | A14G C18U A41U C45U | 0.1
119 | C15A A16U A24U C31U | 0.03
120 | A14C G36U U43A | 0.03

Row | Variant | self-cleavage
121 | A14U A24G A26U C31G | 0.05
122 | A14U C18G A24G A25U C42A | 0.07
123 | A14U C23G G33U C37U | 0.02
124 | A14G C15A G19C | 0.17
125 | A14G C15A G33A | 0.04
126 | A14U G30C C37A | 0.1
127 | A14U A16C A26G C31G | 0.06
128 | A14G C15U U28G A39G | 0.01
129 | A14U C18A U43A C45U C46A | 0.03
130 | A14G G17C C31U | 0.01
131 | A14U G22A G40U A41U C42U U43G | 0.05
132 | A14C U34C G35U | 0.07
133 | A14G C31U U38C | 0.08
134 | A14U C18A G19U G36C C37U C45G | 0.01
135 | C15A A16U G21A | 0.18
136 | A14G U28C C45G C46U | 0.03
137 | A14G C15U G40A | 0.06
138 | A14G G19C C42A | 0.01
139 | A14G G22U A39C | 0.14
140 | A14U C15A G21A G27A G30U | 0.08
141 | A14U U20C U32C | 0.06
142 | A14U C18U C37A | 0.13
143 | A14U C18G G19A | 0.13
144 | A14G G17U G21U C45U | 0.03

Row | Variant | self-cleavage
145 | A14U U28C C31U C46A | 0.01
146 | A14G G17U G22C U32C G33C U34C | 0.03
147 | A14G G27U U32C U34A G35U G36C C46A | 0.13
148 | A14U C15U G17C | 0.12
149 | A14G C23A C37U C45A | 0.03
150 | A14G C15G C23U A39C | 0.6
151 | A14U G19A U34A | 0.25
152 | A14U G29A C46U | 0.07
153 | A14U U20G G44A | 0.08
154 | A14C U20G G40A | 0.08
155 | C15A A16G A26C | 0.03
156 | A14U G17C C31G | 0.01
157 | A14G G19A G33A C37U | 0.03
158 | C15A A16C G17C G21U A24C G27U C37G | 0
159 | A14G G35A C46U | 0.08
160 | A14U G21A G27U G35U | 0.11
161 | C15A A16C A24C C37A | 0.02
162 | C15A A16U C42G | 0.11
163 | A14U A16U G22A | 0.03
164 | A14G G29C U43A | 0.01
165 | A14C U20A C37A A41U | 0.05
166 | A14U G30A G44A | 0.03
167 | A14U A24C C42G | 0.05
